The values below come from publication PMC4336329 (PLoS ONE, 2015).

Structures are written as SMILES. Out of some 310,000 compounds screened, about 14,000 (4.5%) showed an effect of 50% or more. Effects have a minus sign here. The list shows a part of the results.
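Also: peak tail current of the secondary pulse compared with the same well before compound.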

Sequence of human ether-à-go-go-related gene (hERG) potassium channel (Q12809 whole entry, looked up): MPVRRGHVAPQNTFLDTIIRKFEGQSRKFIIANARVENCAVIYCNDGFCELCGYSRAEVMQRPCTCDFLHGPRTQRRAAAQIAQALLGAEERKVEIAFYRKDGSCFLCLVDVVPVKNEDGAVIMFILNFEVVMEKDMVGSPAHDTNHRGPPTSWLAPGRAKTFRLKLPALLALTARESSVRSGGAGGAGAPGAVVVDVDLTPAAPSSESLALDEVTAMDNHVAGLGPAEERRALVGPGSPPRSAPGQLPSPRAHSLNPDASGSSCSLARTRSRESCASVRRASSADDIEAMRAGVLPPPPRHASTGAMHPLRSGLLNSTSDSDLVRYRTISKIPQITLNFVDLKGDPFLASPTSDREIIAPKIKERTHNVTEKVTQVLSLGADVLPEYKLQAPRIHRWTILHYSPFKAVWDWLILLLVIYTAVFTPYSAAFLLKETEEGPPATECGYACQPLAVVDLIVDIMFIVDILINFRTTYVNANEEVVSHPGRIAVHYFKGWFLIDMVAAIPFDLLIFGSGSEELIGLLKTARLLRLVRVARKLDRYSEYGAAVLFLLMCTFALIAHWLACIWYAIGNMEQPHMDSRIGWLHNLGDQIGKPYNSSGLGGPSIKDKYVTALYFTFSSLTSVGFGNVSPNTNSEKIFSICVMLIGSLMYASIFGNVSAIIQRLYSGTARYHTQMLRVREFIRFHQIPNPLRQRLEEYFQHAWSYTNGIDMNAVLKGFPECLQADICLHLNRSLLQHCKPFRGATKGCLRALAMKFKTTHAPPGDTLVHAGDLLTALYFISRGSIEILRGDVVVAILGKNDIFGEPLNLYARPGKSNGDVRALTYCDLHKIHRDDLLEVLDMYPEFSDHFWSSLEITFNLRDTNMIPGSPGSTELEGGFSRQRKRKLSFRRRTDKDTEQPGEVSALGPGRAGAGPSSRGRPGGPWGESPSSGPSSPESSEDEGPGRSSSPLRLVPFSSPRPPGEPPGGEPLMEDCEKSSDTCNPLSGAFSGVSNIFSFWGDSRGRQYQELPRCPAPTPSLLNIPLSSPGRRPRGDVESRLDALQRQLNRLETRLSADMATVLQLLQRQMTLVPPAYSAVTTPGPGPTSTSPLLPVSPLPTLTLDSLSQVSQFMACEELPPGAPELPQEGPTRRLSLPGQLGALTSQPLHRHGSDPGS

The experiment has as its target human ether-à-go-go-related gene (hERG) potassium channel (human, UniProt Q12809). Briefly: primary screen, population patch clamp on CHO cells stably expressing hERG.
Turning to `Nc1nncn1C(=O)c1c(Cl)cccc1Cl`, the “hERG current change (%, negative = inhibition) at 10uM” value is -1.15%.
With `COc1ccc(F)cc1C(=O)C1CCCN(Cc2ccc(O)cc2)C1` (centres unmarked), the “hERG current change (%, negative = inhibition) at 10uM” value is on record as -52%.
Under `O=C(OCCc1cc2ccccc2c(=O)o1)c1ccco1` stands -10.5%; under `O=C(NCC1CCCCC1)c1cc(Br)ccc1Cl`, 2.12%.
Under `COCc1c(C#N)c(NCCc2ccc(F)cc2)nc(C)c1[N+](=O)[O-]` stands 1.39%; under `CCN(CC(=O)Nc1ccc(S(=O)(=O)N2CCCCC2)cc1)Cc1ccccc1`, -23.7%; under `Cc1cccc(OCC(O)CN2CCN(CCN3C(=O)c4cccc5cccc(c45)C3=O)CC2)c1C` (centres unmarked), -35.7%.
Next, `Cn1c(SCC(N)=O)nnc1-c1ccccc1`: 0.601%; `Nc1nnn(CC(=O)N/N=C/c2ccc(Cl)cc2Cl)n1`: 8.17%; `Cc1ccc(S(=O)(=O)n2nc(-c3ccco3)nc2SCc2ccccc2)cc1`: 2.23%.
Turning to `CCCSc1nnc(CSc2ncccn2)n1C`, the “hERG current change (%, negative = inhibition) at 10uM” value is on record as 4.49%.
Consider `Cc1ccc(NS(=O)(=O)c2ccc(NC(=O)c3ccc(-c4ccccc4)cc3)cc2)c(C)c1`, for which the “hERG current change (%, negative = inhibition) at 10uM” value turned out to be 0.631%.
Next, `COc1cccc(C(=O)CC(=O)C(=O)Nc2ccc(C)cc2Cl)c1`: 7.53%; `COc1cccc(/C=C2\SC(=O)N(CCC(=O)NNC(=O)c3ccccc3Cl)C2=O)c1`: -2.44%; `Cc1cc2nc(SCC(=O)N(C)C)c3c(c2cc1C)CCCC3`: -8.59%.
`O=C(NCCC1=CCCCC1)c1ccc(Cl)c(S(=O)(=O)N2CCCCC2)c1`: the “hERG current change (%, negative = inhibition) at 10uM” value came out at 2.87%.
Regarding `COCCOC(=O)c1c(C)oc2ccc(OC(=O)c3c(OC)cccc3OC)cc12`, the “hERG current change (%, negative = inhibition) at 10uM” value is recorded as 11%.
Under `CCOC(=O)C1CCN(S(=O)(=O)c2ccc3c(c2)CC(=O)N3C)CC1` stands -22%.
Turning to `O=C(CSc1nnc(CNc2ccc(F)cc2)o1)N1CCN(C(=O)c2ccco2)CC1`, the “hERG current change (%, negative = inhibition) at 10uM” value is reported as -50.8%.
Next, `CC/C(=N\NC(=O)CSCc1ccc(Cl)cc1)c1ccc2c(c1)OCCO2`: 17.4%; `COc1ccc(CNCC(=O)Nc2ccccc2-n2cccc2)cc1.Cl`: -15.6%; `COc1ccc(C(=O)Oc2cc(OC)cc(OC)c2C(C)=O)cc1`: -2.89%.
For the molecule `COc1cc2[nH]c3c(=O)n(N)c(=O)[nH]c3c2cc1OC`, the “hERG current change (%, negative = inhibition) at 10uM” value turned out to be 14%.
Next, `O=C1OCCN/C1=C\C(=O)c1ccccc1`: 2.91%.
Next, `CN(C)c1ccc(C(C#N)c2ccccc2)nn1` (centres unmarked): 34.5%; `COc1ccc(OC)c(CNC(=O)C2CCN(S(=O)(=O)N3CCC(C)CC3)CC2)c1`: -31.8%; `CNc1c(NS(=O)(=O)c2cc(Cl)ccc2OC)c(=O)oc2ccccc12`: 13.6%.
Next, `CCOC(=O)c1cc2c(ccn2C)n1CC(=O)N1CCC(C)CC1`: 4.25%.
On to `N#Cc1cc(-c2ccccc2)nn1-c1ccccc1`, for which the “hERG current change (%, negative = inhibition) at 10uM” value is 15.1%.
Next, `Nc1nc(CSc2ncn[nH]2)nc(Nc2ccc(F)cc2)n1`: 6.74%; `CS(=O)(=O)c1ccc(C(=O)OCC(=O)N(CCc2ccccc2)Cc2ccccc2)cc1`: -11.6%.
Under `O=C(Nc1cc(Cl)cc(Cl)c1)N1CCN(C(=O)C2CCCO2)CC1` (centres unmarked) stands -26.4%; under `COc1ccc(Cc2nc(-c3cccs3)no2)cc1OC`, -5.46%.
Next, `CC(=O)c1c(C)[nH]c(C(=O)Nc2nc(-c3ccc(-c4ccccc4)cc3)cs2)c1C`: 19.3%.
Take `O=C(NCc1ccncc1)c1cccc(S(=O)(=O)N2CCc3ccccc32)c1`: the “hERG current change (%, negative = inhibition) at 10uM” value is -31.3%.
With `Cc1c(-n2c(SCC(=O)O)nnc2-c2ccccc2Cl)c(=O)n(-c2ccccc2)n1C`, the “hERG current change (%, negative = inhibition) at 10uM” value is 18.7%.
Under `COc1ccc(CN2CCN(Cc3cccc(OC)c3)C(CCO)C2)cc1` (centres unmarked) stands -45.8%; under `CSc1cccc(NC(=O)C2CCN(S(=O)(=O)c3cnc[nH]3)CC2)c1`, 9.39%; under `NC(=O)c1nsc(C(=O)N(CC(=O)NC2CCCCC2)Cc2ccc(F)cc2)c1N`, -8.15%.
Next, `CCCN(CC1CC1)C(=O)Nc1ccccc1C`: 1.34%; `CCCCNC(=O)COC(=O)c1cc2c(C)nn(-c3ccccc3)c2s1`: 17.8%; `CCOc1ccc(NC(=O)CN2CCc3ccccc3C2)cc1`: -6.01%.
As to `CCN(c1ccccc1)S(=O)(=O)c1ccc(C(=O)Nc2ncccc2C)cc1`, the “hERG current change (%, negative = inhibition) at 10uM” value is given as -3.17%.
Next, `C#CCOCCOCCOCCNc1nc(N2CCN(C(=O)C([C@@H](C)CC)n3cc(C(N)COC(=O)C(F)(F)F)nn3)CC2)nc(N2CCN(C(=O)[C@H](CCCCN)n3cc(C(N)[C@H](C)CC)nn3)CC2)n1.Cl` (some centres unmarked): 5.88%.
Next, `CCc1ccc(S(=O)(=O)Nc2nnc(N)s2)cc1`: 11.1%; `Cc1n[nH]c(C)c1N=Nc1ccc(Br)cc1`: 44.7%; `CC(C)(C)NC(=O)Cn1nnc(-c2ccccc2NC(=O)c2cnccn2)n1`: 4.48%.
In the case of `O=C(COc1cccc(Cl)c1)NCc1ccccc1`, the “hERG current change (%, negative = inhibition) at 10uM” value is recorded as 18.9%.
Next, `COc1ccc(N2C(=O)CC(N3CCN(c4ccc(S(=O)(=O)N5CCCC5)cc4)CC3)C2=O)cc1` (centres unmarked): -10.4%; `CCOc1ccccc1NC(=O)c1ccc2c(c1)C(=O)N(C(C)(C)C)C2=O`: 24.6%; `COc1ccc(-c2nc3cc([N+](=O)[O-])ccc3o2)cc1OC`: 10.3%.
Under `COCCNC(=O)c1noc2c1CCc1cc(OC)ccc1-2` stands -6.83%; under `CCOc1cccc(C(=O)Nc2nc(-c3ccc(S(=O)(=O)N4CCOCC4)cc3)cs2)c1`, -0.459%.
With `CCCn1c(=O)c(C(=O)NCc2ccccc2)c(O)c2ccccc21`, the “hERG current change (%, negative = inhibition) at 10uM” value was found to be 7.64%.
Under `CC12CC3CC(C)(C1)CC(C(=O)Nc1nn[nH]n1)(C3)C2` stands 18.4%; under `CC(C)Oc1ccc(CC(=O)NNC(=S)Nc2ccc(Br)cc2)cc1`, -1.09%; under `Cc1cc(C)n2cc(CSCc3ccco3)nc2n1`, -13.9%.
Consider `COc1ccc(NC(=O)c2cc(-c3ccco3)on2)cc1OC`, for which the “hERG current change (%, negative = inhibition) at 10uM” value came to 13.9%.
Under `O=C(Nc1ccc(-c2nc3ccccc3o2)c(O)c1)c1cc(-n2cnnc2)ccc1Cl` stands 1.02%.
Turning to `Cc1cc(C)n(Cc2ccccc2Cl)n1`, the “hERG current change (%, negative = inhibition) at 10uM” value was 0.411%.
For `O=C(CNC(=O)c1ccccc1F)OCCCOC(=O)CNC(=O)c1ccccc1F`, the “hERG current change (%, negative = inhibition) at 10uM” value is 1.56%.
Under `Cc1cc(Cl)nc2ccc(Cc3ccc4nc(Cl)cc(C)c4c3)cc12` stands 18.4%; under `Cc1ccc(CSCC(=O)N(C)CC(=O)Nc2ccccc2Cl)cc1`, 15.4%; under `Cc1cccc2cc(CN(CC3CCCO3)C(=S)NCc3ccco3)c(=O)[nH]c12` (centres unmarked), 9.55%.
Turning to `O=C(C1CCC1)N1CCN(S(=O)(=O)c2ccc(F)cc2)CC1`, the “hERG current change (%, negative = inhibition) at 10uM” value came out at 11.4%.
Under `CCCCCC1CCC(C(=O)O)CC1` (centres unmarked) stands 5.24%.
Next, `COc1ccc(N=Cc2sc(O)c3ccccc23)cc1`: 13.7%; `O=C1Cc2cc(NS(=O)(=O)c3ccc(Cl)cc3)cc3c2N1CCC3`: -24.6%; `CCC(=O)Nc1nc2ccccc2n1Cc1ccccc1`: -6.62%.
Next, `CNC(=O)N(O)C1N(NC(=O)Nc2cccc3ccccc23)C(=S)SC1(C)C` (centres unmarked): 3.9%; `COc1ccc(OC)c(NC(=O)c2ccc(-n3cccn3)nc2)c1`: -19.6%.
Consider `C1COCCNCCOCCOCCOCCN1`, for which the “hERG current change (%, negative = inhibition) at 10uM” value came out at 0.269%.
Consider `COc1ccc(C(CNC(=O)c2cc(S(=O)(=O)N3CCCC3)ccc2Cl)N2CCCC2)cc1` (centres unmarked), for which the “hERG current change (%, negative = inhibition) at 10uM” value was -31.6%.
Under `Cc1ccc(S(=O)(=O)Nc2cccc(Cl)c2)cc1NC(=O)c1cccnc1` stands -12.6%.
Next, `S=C1NCCOCCOCCOCCNC(=S)NCCOCCOCCOCCN1`: 19%; `Cc1cccc(C(=O)N(CCc2ccccc2)Cc2ccccc2)c1[N+](=O)[O-]`: 4.17%.
As to `CC(C)Cn1cnc2c1c(=O)n(CC(O)c1ccccc1)c(=O)n2CC(C)C` (centres unmarked), the “hERG current change (%, negative = inhibition) at 10uM” value was -5.63%.
Under `Cc1cccc(N2C(=O)NC(=O)/C(=C/c3ccc(N4CCOCC4)cc3)C2=O)c1` stands 19.3%; under `COc1ccccc1C(=O)NCCC(=O)N(C)Cc1cccnc1`, 1.24%.
Next, `O=C(O)CSCC(=O)NCc1csc2ccc(Cl)cc12`: 15.5%; `C=CCc1cccc(CNc2c(C)cc(C)cc2C)c1O`: 20.6%.
Turning to `O=C(Nc1ccc(Cl)c(C(F)(F)F)c1)c1ccco1`, the “hERG current change (%, negative = inhibition) at 10uM” value is -18.2%.
Under `CNC1=C(N(C(C)=O)c2ccc(Br)cc2)C(=O)c2ccccc2C1=O` stands 11.5%; under `COc1ccc(OC)c(NC(=O)C2CC(=O)N(c3ccc(Br)cc3)C2)c1` (centres unmarked), -33.6%.
Turning to `O=C(C(Cc1ccccc1)n1cccc1)N1CCN(C2CCCCC2)CC1` (centres unmarked), the “hERG current change (%, negative = inhibition) at 10uM” value is given as -56.6%.
Next, `COc1ccccc1C(=O)NCCC(=O)N1CCN(C(C)=O)CC1`: 21.3%.
Next, `COC(=O)C1=C(C)NC(C)=C(C(=O)OC)C1/C=C/c1ccccc1`: -3.12%; `CCn1ccc(C(=O)NC2=NCCS2)n1`: -3.73%; `CC(C)Cc1nc2oc3c(NCc4cccnc4)ncnc3c2c2c1CCC2`: -50.8%.
